Test results published in PubChem BioAssay AID1347073 (National Center for Advancing Translational Sciences (NCATS), 2019).
Among all 45,000 compounds or so, about 200 (0.44%) were called active. Roughly 7% stayed inconclusive and do not appear here. Calls come from the whole dose curve; as a rule, active = well fitted activation curve with a large enough effect; inconclusive = small, poorly fitted or top-dose-only effect; inactive = no such curve, though single readings can be large or run the other way. Some of the results follow.

assay: qHTS of TDP-43 Inhibitors: NCGC Sytravon Library Screen; settings: yeast TDP-43 toxicity rescue, BacTiter-Glo growth, 24 h; series mostly up to 46.1 µM; growth rescue (activation): at the top concentration; note: 0% is about no effect; nearly all actives have a fitted effect of over 55% in size
Outline: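 TDP-43-expressing yeast, pregrown in raffinose, seeded at OD600 0.02 in galactose medium with compound for 24 hr at 30 deg C. Growth read by BacTiter-Glo luminescence, so rescue of toxicity appears as activation.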

| SMILES | growth rescue (activation) |
| --- | --- |
| Cc1ccc(CN(C(=O)COc2c(C)cccc2C)C2CCS(=O)(=O)C2)o1 (centres undefined) | inactive: 6.4% |
| COc1ccc(-c2nn(C)c(=O)c3ccccc23)cc1CNS(C)(=O)=O | inactive: 8.2% |
| CCc1cc(C(=O)OC)c(NC(=O)CN2CCN(C(=O)C3CCCO3)CC2)s1 (centres undefined) | inactive: 19.2% |
| CCOc1ccc(NC(=O)CSc2nc(NS(=O)(=O)c3ccc(C)cc3)cc(=O)[nH]2)cc1 | inactive: 7.29% |
| COc1ccc(-c2csc(NC(=O)COc3ccc(N(C)S(=O)(=O)c4ccc(C)cc4)cc3)n2)cc1 | inactive: 3.84% |
| Cc1ccc(NC(=O)CCS(=O)(=O)c2ccc(Br)cc2)nc1 | inactive: 6.98% |
| Cc1nc(S/C(=C\c2ccc(OCc3ccccc3Cl)cc2)C(=O)O)n[nH]1 | inactive: 0.826% |
| C=CCn1c(P(C)(=O)O)nc2ccccc21 | inactive: 10.8% |
| COc1ccccc1-c1noc(CCCC(=O)NC2CCCC2)n1 | inactive: -6% |
| COc1ccc(CCNC(=O)c2coc3ccccc3c2=O)cc1 | inactive: 11.5% |
| O=C(CSc1ccccc1)Nc1ccc(-c2nc3ccccc3[nH]2)cc1 | inactive: 8.79% |
| CCCN(CC(=O)Nc1ccccc1OC)C(=O)c1ccccn1 | inactive: 14.6% |
| O=C(CSc1nnc(-c2ccccc2O)o1)NC1CCCCC1 | inactive: 25.7% |
| O=C(CNC(=O)C1CCCCC1)NCc1ccco1 | inactive: -8.68% |
| c1cncc(-c2nc3ccccc3o2)c1 | inactive: 28.2% |
| O=C(c1cccs1)N1CCN(Cc2ccc3c(c2)OCO3)CC1 | inactive: 18.1% |
| COc1cc(NC(=O)c2cccs2)c(OC)cc1NC(=O)CCC(=O)Nc1ccc(C)cc1 | inactive: -7.47% |
| CCCCc1nc(Cl)c(C#N)c2c1CCC2 | inactive: -5.15% |
| COc1ccc(/C=N/Nc2c(Cl)cc(Cl)cc2Cl)cc1CN1CCOCC1 | inactive: -15.9% |
| COc1ccc(N2C(=O)CC(N(CCc3ccccc3)C(=O)/C=C/C(=O)O)C2=O)cc1 (centres undefined) | inactive: -1.13% |
| COc1cc(C(=O)Nc2nnc(C(C)(C)C)s2)c([N+](=O)[O-])cc1OC | inactive: 18.4% |
| COc1ccccc1C(c1nnnn1C(C)C)N1CCN(C(=O)c2ccco2)CC1 (centres undefined) | inactive: 14.2% |
| COc1ccc(-c2cc(=Nc3c(C)n(C)n(-c4ccccc4)c3=O)c3ccccc3o2)cc1 | inactive: 21% |
| CN(C(=O)COC(=O)c1cc(NS(=O)(=O)c2cc([N+](=O)[O-])ccc2Cl)ccc1O)C1CCCCC1 | inactive: 18.8% |
| CCCCOc1ccc(/C=C/C(=O)Nc2ccc(C(N)=O)cc2)cc1 | inactive: -4.7% |
| Cc1cccc(C)c1NCC(=O)N1CCN(Cc2ccccc2)CC1 | inactive: 9.36% |

| SMILES | growth rescue (activation) |
| --- | --- |
| O=C(NCc1cccc(Cl)c1)c1ccc(-c2ccc(F)c(F)c2)c2ccoc12 | inactive: 13.1% |
| NC(=O)c1nnsc1Sc1c(C(N)=O)nnn1-c1cccc(N)c1 | inactive: 7.47% |
| Cc1ccc(N(O)C(=O)NCCCCNC(=O)N(O)c2ccc(C)cc2)cc1 | inactive: 15.1% |
| CCc1nc2ccc(C(=O)N(CC)CCN(C)C)cn2c1N(C)Cc1ccc(OC)cc1 | inactive: 7.1% |
| CN(C)CCCNc1nc(N)c([N+](=O)[O-])c(NCc2ccccc2)n1 | inactive: 6.58% |
| COc1ccc(/C=C(/NC(=O)/C=C/c2ccccc2)C(=O)NCCCCCC(=O)O)cc1 | inactive: -0.967% |
| COC(=O)c1ccc(NC(=O)CNCc2ccncc2)cc1 | inactive: 5.28% |
| c1ccc2c(c1)nnn2CNc1nccs1 | inactive: -0.765% |
| O=[N+]([O-])c1ccc(Cc2nnc(-c3ccccc3Cl)o2)cc1 | inactive: 22.8% |
| CCCCC(=O)Nc1ccc(C(=O)Nc2ccc(S(=O)(=O)Nc3nccc(C)n3)cc2)cc1 | inactive: 15.9% |
| COc1ccccc1NC(=O)c1ccccc1C(=O)N(C)Cc1ccccc1 | inactive: 21.6% |
| Cc1cccc(Nc2nc(N)nc(CN3CCC(C(N)=O)CC3)n2)c1C | inactive: 11.4% |
| CC1(C(=O)NS(=O)(=O)c2cccc(Cl)c2)CCN1C(=O)c1cccc(F)c1 (centres undefined) | inactive: 3.27% |
| Cc1cccc(CC(=O)Nc2ccc(C(=O)N3CCCCC3)cc2)c1 | inactive: -7.47% |
| CCc1nc2ccc(C(=O)Nc3cccc(NS(C)(=O)=O)c3)cn2c1N(C)C(=O)Cc1ccccc1 | inactive: -10.6% |
| CC(=O)N=c1scc(-c2ccccc2)n1-c1cccc(O)c1 | inactive: 1.8% |
| CC(C)N1CCCC(C)(C(=O)Nc2nc3ccccc3n2C)C1 (centres undefined) | inactive: -5.02% |
| CC(/C=C/c1ccccc1)=N\Nc1ccccc1[N+](=O)[O-] | inactive: -2.58% |
| COc1cc(OC)c(OC)cc1/C=N/NC(=O)c1ccc(=O)n(C)c1 | inactive: 14.9% |
| Cc1cc(C)c(NC(=S)NC(=O)c2ccc(-c3ccccc3)cc2)c(C)c1 | inactive: 25.4% |
| CC(=O)C1=C(O)C(=O)N(c2ccc(O)cc2)C1c1ccc([N+](=O)[O-])cc1 (centres undefined) | inactive: 1.03% |
| Cc1ccc(C2CC(=O)C=C(NCC(C)C)C2)cc1 (centres undefined) | inactive: 15.4% |
| O=C(NC(c1ccc(F)cc1)c1ccc2ccccc2n1)C1CCN(Cc2ccc(Oc3ccccc3)cc2)CC1 (centres undefined) | inactive: 9.88% |
| CS(=O)(=O)NCCNc1cc(Cl)ccc1[N+](=O)[O-] | inactive: 7.01% |
| CCn1c(N2CCN(C(=S)Nc3ccc(OC)cc3)CC2)nc2ccccc21 | inactive: -1.17% |
| COc1ccc(OCC(=O)NS(=O)(=O)c2ccccc2)cc1 | inactive: 20.8% |

| SMILES | growth rescue (activation) |
| --- | --- |
| N#Cc1ccsc1NC(=O)CN1CCN(c2ccccc2)CC1 | inactive: 15.9% |
| CCCC(C)NC(=O)Cn1c(=O)c2c(ncn2CCC(C)C)n(Cc2ccccc2)c1=O (centres undefined) | inactive: 17.7% |
| O=C(O)CC(c1cccc([N+](=O)[O-])c1)N1Cc2ccccc2C1=O (centres undefined) | inactive: -2.46% |
| CCC[N+]1(CC#CCC(c2ccccc2)c2ccccc2)CCCCC1 | inactive: 9.53% |
| Cc1cccc(CN2CCc3c([nH]c4ccccc34)C2)c1 | inactive: -6.83% |
| COc1ccc(-n2nc3c(N)n[nH]c3cc2=O)cc1 | inactive: -1.72% |
| CCN(CC)C(=O)c1cccc(-c2csc(C(C)(O)c3ccccc3)n2)c1 (centres undefined) | inactive: 22.7% |
| Cc1ccc(S(=O)(=O)N2CCOCC2)cc1NC(=O)COC(=O)c1ccc2c(c1)OCO2 | inactive: 1.25% |
| COc1ccc2nc(C)cc(Nc3ccccc3O)c2c1 | inactive: -2.52% |
| C/C(CC(=O)Nc1ccc(C)c(Cl)c1)=N\NC(=O)C1CCCCC1 | inactive: 6.02% |
| COc1ccc(CNC(=O)CCSc2ccc(F)cc2)cc1OC | inactive: 22.8% |
| Cc1oc(/C=N/NS(=O)(=O)c2ccccc2)cc1Br | inactive: 18% |
| COc1cc(/C=N/NC(=O)c2cc(C)n(-c3ccc(F)cc3)c2C)cc(OC)c1O | inactive: 2.67% |
| O=C(Nc1ccc(S(=O)(=O)N2CCCCC2)cc1)c1ccc(F)cc1 | inactive: 18.9% |
| Cc1cccc(C)c1OCc1nc2c3c(-c4ccccc4)c(-c4ccccc4)oc3ncn2n1 | inactive: 8.03% |
| COc1ccc(C2CCCN2CC(O)COc2ccccc2C(C)C)cc1 (centres undefined) | inactive: 11.8% |
| CCn1cc(C(=O)N2CCN(c3ccc(C(C)=O)cc3)CC2)c2cc(OC)c(OC)cc2c1=O | inactive: 0.345% |
| CCC(CO)NS(=O)(=O)c1cc(-c2nn(C)c(=O)c3ccccc23)ccc1C (centres undefined) | inactive: -6.82% |
| O=C(COC(=O)Cc1ccc(Cl)cc1Cl)NCCC1=CCCCC1 | inactive: 22.8% |
| CN(CCCC(=O)Nc1ccccc1F)S(=O)(=O)c1ccc(F)cc1 | inactive: 3.46% |
| COc1ccc(Cl)cc1NC(=O)C1Cc2ccccc2CN1S(C)(=O)=O (centres undefined) | inactive: -4.66% |
| CCc1ccc(NC(=O)Cn2c3[n+](c4c(F)c(F)ccc42)CCCCC3)cc1 | inactive: -15.3% |
| O=C(O)c1cc(NC(=S)NC(=O)C(c2ccccc2)c2ccccc2)ccc1Cl | inactive: 2.25% |
| Cn1c(=O)c(=O)n(C)c2cc(S(=O)(=O)CCC(=O)Nc3ccc(F)cc3)ccc21 | inactive: 10.9% |
| CC(=O)Nc1ccc(NC(=O)C/C(C)=N/NC(=O)COc2cc(C)c(Br)cc2Br)cc1 | inactive: 7.96% |
| O=C(CC(c1ccccc1)c1ccccc1)NCC(O)c1ccc([N+](=O)[O-])cc1 (centres undefined) | inactive: -2.38% |

| SMILES | growth rescue (activation) |
| --- | --- |
| COc1ccc(C(=O)N/N=C/c2ccccc2OC(=O)c2ccccc2)cc1 | inactive: 5.42% |
| COC(=O)c1ccc(/C=C2/SC(=S)N(CCCC(=O)Nc3ccccn3)C2=O)cc1 | inactive: 8.68% |
| Cc1ccc(-c2noc(Cn3nc(C(=O)O)c4ccccc4c3=O)n2)cc1 | inactive: -3.51% |
| COc1ccc(/C=N/Nc2cc(C)nc(N3CCOCC3)n2)cc1OC | inactive: 23.2% |
| FC(F)(F)c1cc(Cl)c2nnc(C(F)(F)Cl)n2c1 | inactive: -7.28% |
| COc1cc(C2SCC(=O)N2CCCN(C)C)cc(OC)c1OC (centres undefined) | inactive: -5.97% |
| CCCN1CN=C(NS(=O)(=O)c2ccc(C)cc2)NC1 | inactive: 5.24% |
| COc1cccc(N2CCN(C(=O)c3cccn4c(=O)c5c(C)c(C)sc5nc34)CC2)c1 | inactive: -2.5% |
| C=C(C)C(=O)NNc1ccccc1 | inactive: 6.73% |
| CCOC(=O)C1=C(C)NC(C)=C(C(=O)OCC)C1C(=O)OCC(=O)NCc1ccccc1 | inactive: 7.06% |
| CCn1c(SCC(=O)Nc2ncc(C(F)(F)F)cc2Cl)nnc1-c1cccc(C)c1 | inactive: 24.1% |
| CCN(C(=O)COC(=O)c1cc(-c2ccccc2)nc2c1c(C)nn2-c1ccc(C)cc1)C1CCS(=O)(=O)C1 (centres undefined) | inactive: 2.44% |
| CCCC(C(=O)NCc1ccco1)N(C(=O)CNS(=O)(=O)c1ccccc1)c1ccc(OC)cc1 (centres undefined) | inactive: 21.5% |
| CCOc1ccc2oc(C(=O)NC3CC(C)(C)NC(C)(C)C3)c(C)c2c1 | inactive: 0.957% |
| Cc1ccccc1OCC(=O)Nc1ccc(-c2nc3ncccc3o2)cc1 | inactive: 3.49% |
| COc1ccccc1C(=O)Nc1ccnn1C1CCN(C/C=C/c2ccccc2)CC1 | inactive: 8.26% |
| C/C(=N\NC(=O)CNc1cccc(C(F)(F)F)c1)c1cccs1 | inactive: 28.3% |
| Cc1cccc(CN2CCC(n3nccc3NC(=O)c3ccccc3C)CC2)n1 | inactive: 17.4% |
| Cc1cc(NC(=O)CSc2nnc(C3CC3)n2N)c([N+](=O)[O-])cc1C | inactive: 15.1% |
| O=C(Nc1ccccc1)Nc1ccc(C(=O)N2CCCC2)cc1 | inactive: -54.4% |
| Cc1cc2nc(/C(C#N)=C\c3ccc(-c4ccccc4C(=O)O)o3)[nH]c2cc1C | inactive: -7.84% |
| O=C(OCc1cc(=O)n2ccsc2n1)c1ccccc1NCCO | inactive: 11.6% |
| CC(=O)c1ccc(N2CCN(CC(O)COC(c3ccccc3)c3ccccc3C)CC2)cc1 (centres undefined) | inactive: 1.06% |
| CCN(CC)c1ccc(C(=O)Nn2cnc3ccccc3c2=O)cc1 | inactive: 16.6% |
| CC(=O)Nc1ccc(Nc2cc(C)nc3c(-c4ccccc4)c(C)nn23)cc1 | inactive: 4.7% |
| CCN(CC)c1ccc(/C=N/OCC(=O)Nc2cccc(C)c2)cc1 | inactive: 7.29% |
